Source: PubChem BioAssay AID686979 (National Center for Advancing Translational Sciences (NCATS), 2013)
In all, about 420,000 compounds went through this assay and about 50,000 (12%) were called active. The inconclusive results got no clear call from the source; some entries with a clear call stand among them for comparison. Calls follow the shape of the dose curve; as a rule, active = well fitted inhibition curve with a large enough effect; inconclusive = small, poorly fitted or top-dose-only effect; inactive = flat fitted curve, though single readings scatter. Potencies of inconclusive entries are left out as doubtful fits.
% is scaled to controls: 0 for no effect and ±100 for the full control effect; potency is read from the fitted curve at half-maximal effect; tags tell the direction and shape of the fitted curve.

Experiment: qHTS for Inhibitors of human tyrosyl-DNA phosphodiesterase 1 (TDP1): qHTS in cells in presence of CPT; also: nearly all actives have a fitted effect of over 55% in size
Conditions: chicken DT40 Tdp1-/-;hTDP1 cells + 20 nM CPT, ATP luminescence, 48 h; activity change, negative = growth inhibition: at 46.2 µM (top of the series)
Outline: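 Cell growth measured by CellTiter-Glo luminescence after a minimum 48 h, 37 C compound exposure with 20 nM CPT in Tdp1-knockout DT40 cells stably expressing hTDP1, seeded 400/well; qHTS titration format.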
For CCN(CC)C(=O)Cn1nnc2sc(-c3ccccc3)cc2c1=O, the Potency was inconclusive [inhibitor, single point]. With CCC(=O)N1c2ccc(S(=O)(=O)NCc3ccc(F)cc3)cc2CC1C (configuration not stated) the Potency was active: 14.6 µM. In the case of CCCCc1c(-c2ccccc2OC)ncn1Cc1ccc(-c2ccccc2)cc1, the Potency is reported as active: 14.6 µM. In the case of COc1cc2c(cc1OC)C(COc1ccc3c(C)cc(=O)oc3c1)N(C(=O)c1cc(Cl)ccc1OC)CC2 (configuration not stated), the Potency is reported as inconclusive [inhibitor, partial curve]. For CCc1ccc(N2C=C(C(=O)OC)C(c3cccc4ccccc34)C(C#N)=C2N)cc1 (configuration not stated), the Potency was active: 13 µM. For N#CCCN(Cc1ccccc1)C(CCc1ccccc1)C(=O)NC1CCCCC1 (configuration not stated), the Potency was inconclusive [inhibitor, single point]. For CCOC(=O)Cc1c(Sc2ccccc2)c2ccccc2n1C, the Potency was inconclusive [inhibitor, single point]. In the case of Cc1c(C)c2ccc(OCC(=O)N3CCN(c4ccc(F)cc4)CC3)c(C)c2oc1=O, the Potency is reported as inconclusive [inhibitor, single point]. In the case of CCCOc1ccc(CNC(=O)c2ccc(-n3c(C)cc4c3CCC(C)C4)cc2)cc1 (configuration not stated), the Potency is reported as inconclusive [inhibitor, single point]. For CNc1nc2c(-c3ccc(Cl)cc3)nnn2c2ccccc12, the Potency was inconclusive [inhibitor, partial curve, poor fit]. With CCCCCCN1CCN(C2CN(CCc3ccccc3)S(=O)(=O)C2)CC1 (configuration not stated) the Potency was inconclusive [inhibitor, single point]. In the case of O=C(Nc1ccc2c(c1)OCO2)c1ccc2c(c1)OCO2, the Potency is reported as inconclusive [inhibitor, partial curve]. With CC(C)C[C@@H](CN1CCC[C@H]1CN1C(=O)C(=O)NC[C@@H]1Cc1ccccc1)N1C[C@H](Cc2ccccc2)N(CC2CCCCCC2)C(=O)C1=O the Potency was active: 18.4 µM. In the case of Cc1ccc(S(=O)(=O)N2CC3CCCN3c3ccc(C(F)(F)F)cc32)cc1 (configuration not stated), the Potency is reported as inconclusive [inhibitor, single point]. For C/C=C/c1cc(CN2CCN(c3ccc(OC)cc3)CC2)c(O)c(OC)c1, the Potency was inconclusive [inhibitor, single point]. For CCN(C(=O)CSc1nc2ccccc2[nH]1)c1ccccc1, the Potency was inconclusive [inhibitor, single point]. In the case of Cc1ccc(C(c2sc3nc(C)nn3c2O)N2CCOCC2)cc1 (configuration not stated), the “activity change, negative = growth inhibition” value is reported as inactive: -3.78%. In the case of Cc1cc(C)n(-c2cc(C(C)(C)C)nc3c(-c4ccc(Cl)cc4)cnn23)n1, the Potency is reported as active: 11.2 µM. In the case of CC(C)C[C@H](NC(=O)OC(C)(C)C)C(=O)N[C@@H](CO)[C@H](O)[C@@H]1C[C@@H]1C(=O)NC1CC1, the “activity change, negative = growth inhibition” value is reported as inactive: 1.29%. In the case of CCOC(=O)c1ccc(S(=O)(=O)n2c(CN3CCCCC3)nc3ccccc32)cc1, the Potency is reported as inconclusive [inhibitor, single point]. In the case of CCOc1ccccc1N(CC(=O)NC1CCCCC1)C(=O)CCC(=O)Nc1nccs1, the “activity change, negative = growth inhibition” value is reported as inactive: -18%. With COCCOC(=O)c1cc(C(=O)c2cc(F)ccc2O)coc1=N the “activity change, negative = growth inhibition” value was inactive: -23.1%. With COc1ccccc1CNC(=O)c1cc(C2CC2)nc2c1cnn2C(C)C the Potency was inconclusive [inhibitor, single point]. In the case of CCC1CCCCN1S(=O)(=O)Cc1ccccc1Cl (configuration not stated), the “activity change, negative = growth inhibition” value is reported as inactive: -0.993%. For CC(C)OC(=O)c1c(NC(=O)C2c3ccccc3Oc3ccccc32)sc2c1CCCC2, the Potency was inconclusive [inhibitor, single point]. In the case of COc1cc(OC)c(NC(=O)CCc2c(C)nc3cc(-c4ccccc4OC)nn3c2C)cc1Cl, the Potency is reported as inconclusive [inhibitor, single point]. For O=c1[nH]c(SCc2ccccc2F)nc2ccccc12, the Potency was inconclusive [inhibitor, single point]. For Cc1ccc(C)c(N2CCN(C(=O)c3ccc4c(c3)N(Cc3ccc(F)cc3)C(=O)c3ccccc3S4=O)CC2)c1 (configuration not stated), the Potency was active: 18.4 µM. In the case of COc1cccc(N2CCN(C(=O)Nc3ccc4c(c3)NC(=O)CO4)CC2)c1, the Potency is reported as inconclusive [inhibitor, single point]. For CCOC(=O)c1ccc(-c2cccc(-c3cc(=O)oc4cc(OC)cc(OC)c34)c2)cc1, the Potency was inconclusive [inhibitor, single point]. With CC1CCC(Nc2nc3c(-c4cccc(C(F)(F)F)c4)nnn3c3ccccc23)CC1 (configuration not stated) the Potency was inconclusive [inhibitor, single point]. For COc1ccc(CCNC(=O)COC(=O)C2CC2C)cc1 (configuration not stated), the “activity change, negative = growth inhibition” value was inactive: -15.7%. For COC(=O)c1cc(CNC(=O)c2cccc(F)c2)cc(NC(=O)c2ccccc2OC)c1, the Potency was inconclusive [inhibitor, full curve, poor fit]. For CCN(CC)S(=O)(=O)c1ccc(Cl)c(C(=O)NC(C)C(c2cccs2)N2CCCC2)c1 (configuration not stated), the Potency was inconclusive [inhibitor, partial curve]. In the case of COc1ccccc1-c1noc(CCC(=O)Nc2ccc(C)cc2C)n1, the Potency is reported as inconclusive [inhibitor, single point]. For Cn1cccc1C(=O)N1CCC2(CCCN(Cc3ccc(C#N)cc3)C2)CC1, the Potency was inconclusive [inhibitor, single point]. With COc1ccc(Cl)cc1-c1cc(C(=O)NCc2ccco2)[nH]n1 the Potency was inconclusive [inhibitor, single point]. For O=C1NC(=O)C(Cc2ccccc2)(C2CCN(Cc3cccn3-c3cccnc3)CC2)N1 (configuration not stated), the “activity change, negative = growth inhibition” value was inactive: 1.8%. With CC(=O)C1C(C)CC2C3CCC4CC(=O)CCC4(C)C3CCC21C (configuration not stated) the Potency was inconclusive [inhibitor, single point]. In the case of CC(C)[C@@H](C(=O)N[C@@H](Cc1ccccc1)C(=O)O)N1C(=O)N2CCc3c([nH]c4ccccc34)[C@@]2(C)C1=O, the “activity change, negative = growth inhibition” value is reported as inactive: 7.84%. For O=C(COc1ccc(S(=O)(=O)NC2CCCCC2)cc1Cl)NCc1ccc2c(c1)OCO2, the Potency was inconclusive [inhibitor, single point]. For O=C(NC1CCCC1)C1CCN(S(=O)(=O)c2ccccc2)CC1, the “activity change, negative = growth inhibition” value was inactive: 6.03%.
